Measurements as given in PMC4336329 (PLoS ONE, 2015).
Screen size: about 310,000 compounds; about 2,200 (0.71%) showed an effect of 50% or more. Effects have a minus sign here. The list shows a part of the results.

Each molecule was assayed against human ether-à-go-go-related gene (hERG) potassium channel (human, UniProt Q12809) (assay: primary screen, population patch clamp on CHO cells stably expressing hERG).
Chain of human ether-à-go-go-related gene (hERG) potassium channel (Q12809 whole entry, looked up): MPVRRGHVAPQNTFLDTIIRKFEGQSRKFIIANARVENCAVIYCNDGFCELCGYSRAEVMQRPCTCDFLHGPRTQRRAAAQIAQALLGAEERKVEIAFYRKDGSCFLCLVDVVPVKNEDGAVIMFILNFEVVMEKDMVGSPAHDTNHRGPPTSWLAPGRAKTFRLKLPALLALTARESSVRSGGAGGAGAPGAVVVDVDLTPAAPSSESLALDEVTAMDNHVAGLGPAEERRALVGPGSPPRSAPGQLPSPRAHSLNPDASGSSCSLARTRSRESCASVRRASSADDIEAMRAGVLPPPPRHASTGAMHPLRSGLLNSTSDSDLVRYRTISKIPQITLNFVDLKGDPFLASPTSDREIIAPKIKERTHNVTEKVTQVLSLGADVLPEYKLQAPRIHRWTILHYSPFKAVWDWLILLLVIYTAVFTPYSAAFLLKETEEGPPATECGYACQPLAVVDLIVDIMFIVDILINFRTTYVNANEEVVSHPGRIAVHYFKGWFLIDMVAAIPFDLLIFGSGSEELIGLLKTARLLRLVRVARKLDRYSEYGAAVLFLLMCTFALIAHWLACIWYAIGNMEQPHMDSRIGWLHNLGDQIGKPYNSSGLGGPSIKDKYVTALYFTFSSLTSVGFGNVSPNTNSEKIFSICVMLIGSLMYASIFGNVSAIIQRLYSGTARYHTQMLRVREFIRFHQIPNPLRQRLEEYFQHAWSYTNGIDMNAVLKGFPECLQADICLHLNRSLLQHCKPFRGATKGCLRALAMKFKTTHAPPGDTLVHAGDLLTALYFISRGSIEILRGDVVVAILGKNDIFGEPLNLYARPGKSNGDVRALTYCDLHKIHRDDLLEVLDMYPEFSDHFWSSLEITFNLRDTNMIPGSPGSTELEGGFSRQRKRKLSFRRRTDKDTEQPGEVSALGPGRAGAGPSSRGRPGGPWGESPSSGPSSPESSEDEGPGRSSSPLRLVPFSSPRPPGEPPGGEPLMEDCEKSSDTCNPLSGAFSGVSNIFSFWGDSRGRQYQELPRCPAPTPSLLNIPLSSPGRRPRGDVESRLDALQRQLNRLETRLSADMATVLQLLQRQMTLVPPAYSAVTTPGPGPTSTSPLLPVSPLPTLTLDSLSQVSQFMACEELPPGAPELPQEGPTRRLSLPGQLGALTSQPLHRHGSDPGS

Row | Compound | hERG current change (%, negative = inhibition) at 1uM [%]
1 | CCOC(=O)N1CCC(NCCNC(=O)c2ccccc2Cl)CC1 | 11.1
2 | COc1ccc(S(=O)(=O)N2c3ccccc3OCC2CC(=O)O)cc1 (stereo not drawn) | 7.42
3 | CC(=O)N(c1nc(/C=C\C(=O)O)cs1)c1ccccc1F | 10.9
4 | Cn1c(C(=O)OC(C(=O)NCc2ccco2)c2ccncc2)cc2sccc21 (stereo not drawn) | -18.9
5 | O=C(Nc1nnc(S(=O)(=O)Cc2ccc(F)cc2)s1)c1ccccc1F | 10.9
6 | O=C(NC1(C(F)(F)F)NC(=O)N(c2ccc(F)cc2)C1=O)c1cccs1 (stereo not drawn) | -3.72
7 | O=C(NCCCN1CCCCC1)C1CC(=O)N(CCc2ccccc2)C1 (stereo not drawn) | 8.46
8 | COc1ccc(C(=O)Nc2cc(C)on2)c(OC)c1 | 10.7
9 | O=C(CCn1c(=O)oc2ccccc21)Nc1cccc(Br)c1 | 14.4
10 | CCCCOc1ccc(CN=C(N)N)cc1Cl | 8.58
11 | Br.O=C(NCCNCc1ccccn1)c1ccco1 | 12.8
12 | Cc1cccc(NS(=O)(=O)c2ccc(-c3cnc(C4CC4)o3)cc2)c1C | 13.6
13 | Nc1nc(-c2c(Cl)cccc2Cl)no1 | 9.63
14 | COc1ccc2cc(/C=N/NC(=O)CN(c3ccccc3C)S(=O)(=O)c3ccccc3)c(Cl)nc2c1 | 0.162
15 | Cc1ccc(-n2[nH]c(C)c(C=Nc3ccc4[nH]c(=O)[nH]c4c3)c2=O)cc1C | 2.58
16 | COCC(C)n1c(C)cc(C(=O)CSc2nnnn2C2CCCC2)c1C (stereo not drawn) | 5.12
17 | COC(=O)CCC(=O)c1oc2ccc(Cl)cc2c1NC(=O)CCCN1C(=O)c2ccccc2C1=O | 4.24
18 | COc1ccc(OC)c(NC(=O)c2nnn(CCc3ccccc3)c2N)c1 | 10.3
19 | O=C(N/N=C/c1ccccn1)c1ccc(Br)o1 | 10.1

Row | Compound | hERG current change (%, negative = inhibition) at 1uM [%]
20 | CCc1nnc(/N=C/c2c(O)n(-c3ccc(Cl)cn3)c(=O)c3ccccc23)s1 | 4.82
21 | O=c1c2cnn(-c3ccc(F)cc3)c2ncn1Cc1cccnc1 | 4.83
22 | CC(=O)Nc1ccc(S(=O)(=O)NCCc2c[nH]c3ccc(C)cc23)cc1 | 19.5
23 | Nc1nnc(SCC(=O)NC2CCCCC2)s1 | 12.9
24 | COc1cccc2c(SCC(=O)N/N=C/c3ccc(O)c(O)c3)cc(C)nc12 | 12.8
25 | COc1ccc(C(=O)OCn2nnc3ccccc3c2=O)cc1OC | 1.76
26 | O=C(NC1CCN(S(=O)(=O)c2ccc(F)cc2)CC1)c1ccccc1 | 8.67
27 | O=C(CSc1ncccn1)Nc1ccc(S(=O)(=O)N2CCCCC2)cc1 | 4.38
28 | COc1ccc(N2C(=O)C(CN3CCCCC3)C2c2ccccc2)cc1 (stereo not drawn) | -4.22
29 | CCCC(=O)Nc1ccc(C(=O)NCc2ccccn2)cc1 | 4.39
30 | CC(C)OCCCNC(=O)c1ccc(N(C)S(C)(=O)=O)cc1 | 16.2
31 | COc1cccc(Cn2cnc3c(NS(=O)(=O)c4ccc(Cl)cc4Cl)c(C)c(C)cc32)c1 | 4.63
32 | CCC(=O)Nc1c(C(=O)N2CCN(c3ccccn3)CC2)cnn1-c1ccc(Cl)cc1 | 1.68
33 | COc1ccccc1CN1CC(C(=O)NCc2cccc(C)n2)CCC1=O (stereo not drawn) | 16.9
34 | COc1ccccc1-c1noc(CCCC(=O)NC2CCCCC2)n1 | 7.28
35 | O=C(CN1CCN(S(=O)(=O)c2ccc(Br)s2)CC1)N1CCCCC1 | -2.89
36 | O=c1[nH][nH]c(-c2ccccc2O)c1C(C[N+](=O)[O-])c1ccccc1 (stereo not drawn) | 14
37 | CC(CC(=O)O)Nc1ccccc1O (stereo not drawn) | 16.5
38 | CC(Sc1nnc(Cn2c(=O)sc3ccccc32)n1C)c1ccccc1 (stereo not drawn) | -8.23

Row | Compound | hERG current change (%, negative = inhibition) at 1uM [%]
39 | O=C(Cn1ncc(Cl)c(Cl)c1=O)Nc1ccc2c(c1)OCO2 | -3.02
40 | Cc1ccc(C(=O)OCC(=O)c2c(N)n(C)c(=O)n(C)c2=O)cc1S(=O)(=O)N1CCCCC1 | 10.9
41 | Cc1cc2cc(CN(CC3CCCO3)C(=S)NCc3ccco3)c(=O)[nH]c2cc1C (stereo not drawn) | 7.38
42 | CCOC(=O)C1(Cc2ccccc2)CCCN(CCO)C1 (stereo not drawn) | 12.9
43 | O=C(c1ccco1)[C@@H]1[C@@H]2C(=O)N(c3ccc(F)cc3)C(=O)[C@@H]2[C@H]2C=Cc3ccccc3N21 | 11.2
44 | Cc1ccc2nc(SC(C)C(=O)NCc3ccc4c(c3)OCO4)[nH]c2c1 (stereo not drawn) | 9.48
45 | CC(=O)Nc1ccc(S(=O)(=O)N(C)CC(=O)N/N=C/c2ccncc2)cc1 | 16.4
46 | Cc1ccc(C(C)C)c(OCc2n[nH]c(=S)o2)c1 | 8.13
47 | NC(=O)c1nnsc1Sc1c(C(N)=O)nnn1-c1cccc(N)c1 | 8.69
48 | CC(=O)Nc1cc2c3c(c1)CC(=O)N3CCC2 | -20.2
49 | O=C(Nc1ccc(F)cc1)c1nc(S(=O)(=O)Cc2ccccc2)ncc1Cl | 15.8
50 | COc1cc2c(C)nc(C)c(C#N)c2cc1OC.Cl | 3.31
51 | COc1cc(C)c(Cl)cc1S(=O)(=O)n1ccnc1C | 13.2
52 | COc1cccc(-c2cnc(NCc3cc(Cl)ccc3O)n2C)c1.O=C(O)C(=O)O | -8.11
53 | O=C(NCc1ccc(Cl)cc1)c1noc2c1CCCC2 | 2.68
54 | CCCCN1C(=O)N(C)C2NC(=O)NC21 (stereo not drawn) | 8.36
55 | CC(C)OCCCNC(=O)C(=O)NCCCOC(C)C | 3.34
56 | COc1ccc(CCNc2oc(COc3ccccc3)nc2C#N)cc1 | 9.11
57 | O=C(NCC1CCCO1)C1CCCN1C(=O)Nc1ccc(Cl)cc1 (stereo not drawn) | 21.8
